Experimental data published in the CheMixHub viscosity set.
Where “and” joins values, the source holds several entries; their conditions need not be identical. Identical values can stand only once. The source gives many values for each of these; only a part stands here.

Assay: xn = mol fraction of the nth substance listed

c1ccncc1 + O
Conditions	viscosity
298.15 K, 101 kPa, x1 = 0.0118	0.991 mPa·s
298.15 K, 101 kPa, x1 = 0.014	0.934 mPa·s
298.15 K, 101 kPa, x1 = 0.0223	1.1 mPa·s
298.15 K, 101 kPa, x1 = 0.0243	1.11 mPa·s
298.15 K, 101 kPa, x1 = 0.02471	1.135 mPa·s
298.15 K, 101 kPa, x1 = 0.0389	1.262 mPa·s
298.15 K, 101 kPa, x1 = 0.0396	1.246 mPa·s
298.15 K, 101 kPa, x1 = 0.04031	1.27 mPa·s
298.15 K, 101 kPa, x1 = 0.06219	1.403 mPa·s
298.15 K, 101 kPa, x1 = 0.06665	1.485 mPa·s
298.15 K, 101 kPa, x1 = 0.089	1.62 mPa·s
298.15 K, 101 kPa, x1 = 0.09278	1.692 mPa·s
298.15 K, 101 kPa, x1 = 0.1102	1.78 mPa·s
298.15 K, 101 kPa, x1 = 0.1113	1.778 mPa·s
298.15 K, 101 kPa, x1 = 0.1182	1.789 mPa·s
298.15 K, 101 kPa, x1 = 0.121	1.83 mPa·s
298.15 K, 101 kPa, x1 = 0.1327	1.884 mPa·s
298.15 K, 101 kPa, x1 = 0.134	1.863 mPa·s
298.15 K, 101 kPa, x1 = 0.1572	2.005 mPa·s
298.15 K, 101 kPa, x1 = 0.1857	2.051 mPa·s and 2.106 mPa·s
298.15 K, 101 kPa, x1 = 0.2186	2.147 mPa·s
298.15 K, 101 kPa, x1 = 0.2191	2.194 mPa·s
298.15 K, 101 kPa, x1 = 0.2545	2.2 mPa·s
298.15 K, 101 kPa, x1 = 0.2553	2.259 mPa·s
298.15 K, 101 kPa, x1 = 0.2664	2.216 mPa·s
298.15 K, 101 kPa, x1 = 0.2971	2.244 mPa·s
298.15 K, 101 kPa, x1 = 0.3473	2.191 mPa·s
298.15 K, 101 kPa, x1 = 0.406	2.115 mPa·s
298.15 K, 101 kPa, x1 = 0.4736	1.92 mPa·s
298.15 K, 101 kPa, x1 = 0.6246	1.442 mPa·s
298.15 K, 101 kPa, x1 = 0.811	1.081 mPa·s
298.23 K, 101.33 kPa, x1 = 0.0244	1.116 mPa·s
298.23 K, 101.33 kPa, x1 = 0.05159	1.336 mPa·s
298.23 K, 101.33 kPa, x1 = 0.08889	1.598 mPa·s
298.23 K, 101.33 kPa, x1 = 0.1311	1.833 mPa·s
298.23 K, 101.33 kPa, x1 = 0.1829	2.032 mPa·s
298.23 K, 101.33 kPa, x1 = 0.2523	2.187 mPa·s
298.23 K, 101.33 kPa, x1 = 0.3128	2.225 mPa·s
298.23 K, 101.33 kPa, x1 = 0.3507	2.186 mPa·s
298.23 K, 101.33 kPa, x1 = 0.4791	1.894 mPa·s
298.23 K, 101.33 kPa, x1 = 0.6741	1.35 mPa·s
298.23 K, 101.33 kPa, x1 = 0.8126	1.064 mPa·s
298.23 K, 101.33 kPa, x1 = 0.8863	0.79 mPa·s
298.23 K, 101.33 kPa, x1 = 0.9185	0.942 mPa·s
298.23 K, 101.33 kPa, x1 = 0.9575	0.917 mPa·s
298.25 K, 101.33 kPa, x1 = 0.1	1.67 mPa·s
298.25 K, 101.33 kPa, x1 = 0.2	2.09 mPa·s
298.25 K, 101.33 kPa, x1 = 0.25	2.18 mPa·s
298.25 K, 101.33 kPa, x1 = 0.3	2.22 mPa·s
298.25 K, 101.33 kPa, x1 = 0.4	2.07 mPa·s
298.25 K, 101.33 kPa, x1 = 0.6	1.57 mPa·s
298.25 K, 101.33 kPa, x1 = 0.8	1.09 mPa·s
298.25 K, 101.33 kPa, x1 = 0.9	0.95 mPa·s
318.15 K, 101 kPa, x1 = 0.5002	1.17 mPa·s
318.15 K, 101 kPa, x1 = 0.5998	1.029 mPa·s
318.15 K, 101 kPa, x1 = 0.7002	0.9006 mPa·s
318.15 K, 101 kPa, x1 = 0.8004	0.8021 mPa·s
318.15 K, 101 kPa, x1 = 0.8999	0.7334 mPa·s
